Reference: the antibiotic and cytotoxicity screens of Wong et al. (2023)
This is one part of the list.

What was measured:
HSkMC = human skeletal muscle cells; assay: cytotoxicity call (relative viability < 0.9); details: 10 µM
HepG2 = assay: cytotoxicity call (relative viability < 0.9); details: 10 µM
S. aureus RN4220 = assay: growth inhibition call (relative growth <= 0.2); details: 50 µM

Cn1cnc(S(=O)(=O)N2C[C@H](O)COC[C@@H]3O[C@H](CC(=O)NCc4cc(F)cc(F)c4)CC[C@H]32)c1
inactive: cytotoxicity call (HSkMC) | cytotoxicity call (HepG2) | growth inhibition call (S. aureus RN4220)

CCOC(=O)[C@H]1CN(C(C)(C)C)C(=O)C1=O
inactive: cytotoxicity call (HSkMC) | cytotoxicity call (HepG2) | growth inhibition call (S. aureus RN4220)

C[C@H](CO)N1C[C@H](C)[C@H](CN(C)C(=O)Cc2cccnc2)Oc2cc(C#Cc3ccccc3F)ccc2S1(=O)=O
inactive: cytotoxicity call (HSkMC) | cytotoxicity call (HepG2) | growth inhibition call (S. aureus RN4220)

COc1ccc(NC(=O)Nc2ccc3c(c2)C(=O)N([C@@H](C)CO)C[C@H](C)[C@H](CN(C)C(=O)c2ccccc2)OCCCC[C@@H](C)O3)cc1
inactive: cytotoxicity call (HSkMC) | cytotoxicity call (HepG2) | growth inhibition call (S. aureus RN4220)

O=C(C[C@@H]1CC[C@H]2[C@@H](COC[C@@H](O)CN2S(=O)(=O)c2ccc(Cl)cc2)O1)NCCN1CCCCC1
inactive: cytotoxicity call (HSkMC) | cytotoxicity call (HepG2) | growth inhibition call (S. aureus RN4220)

C[C@@H]1CN([C@H](C)CO)C(=O)c2cc(C#CCN(C)C)cnc2O[C@H]1CN(C)Cc1cccc(C(=O)O)c1
inactive: cytotoxicity call (HSkMC) | cytotoxicity call (HepG2) | growth inhibition call (S. aureus RN4220)

C[C@H]1CN([C@@H](C)CO)C(=O)c2ccccc2-c2ccccc2CO[C@@H]1CN(C)C(=O)Nc1cccc(F)c1
inactive: cytotoxicity call (HSkMC) | cytotoxicity call (HepG2) | growth inhibition call (S. aureus RN4220)
